# The supplement of paper PMC8728848
# The list shows a part of the results.
# B1: SSP1 (Sclerotinia sclerotiorum), XP_001584968 (protein)
# chain: MGSSHHHHHHSSGLVPRGSHMSLLTTELACTSAPDQVLHLFFQDGQNILEARSPDGGNVWTTQDTIIAKDGDYNGSSMTCYYVDKDANFDNQPSIHLLYMNKDKQLTEKVKRMKGDNPIWEDAKVPDEVRKGPEQYSKLTSGSFNQGTGWNPNGSQWAYFSASKDGKMGIVEIRRTPKDPWHTETILEEKWGDELPGTALACVIGNGKIRVFLQHHDYSIILYENQNNTWHDRGTFIPKDKVQATTPLACTMTKDGSVHLFYVSKSNKIIHCTDGKKEEELINFFPGSKLGATSVENKITLFFRNLNPVNEVGTLENENGSWKHGTTVIPA
# Key:
# Assay in all cases: glycan array binding signal (z-score within array); higher = stronger binding
# Settings in all cases: glycan notation: IUPAC condensed, linker removed
# [1] = molecular target: GalNAc3S(b1-4)GlcNAc3S
# Summary of the method: (§1)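 The Consortium for Functional Glycomics database supplied 3228 glycan arrays, of which those lacking an available protein sequence were dropped. The binding signal, a within-array Z-score, was averaged across arrays of the same protein sequence and across linkers. Negative scores can be read as non-binding.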
# [2] = molecular target: GalNAc3S(b1-4)[Fuc(a1-3)]GlcNAc
# Summary of the method: as §1
# [3] = molecular target: GalNAc4S6S(b1-4)GlcNAc
# Summary of the method: as §1
# [4] = molecular target: GalNAc6S(b1-4)GlcNAc
# Summary of the method: as §1
# [5] = molecular target: Glc(a1-4)Glc
# Summary of the method: as §1
# [6] = molecular target: Glc(a1-4)Glc(a1-4)Glc(a1-4)Glc
# Summary of the method: as §1
# [7] = molecular target: Glc(a1-6)Glc(a1-6)Glc
# Summary of the method: as §1
# [8] = molecular target: Glc(a1-6)Glc(a1-6)Glc(a1-6)Glc
# Summary of the method: as §1
# [9] = molecular target: Glc(b1-4)Glc
# Summary of the method: as §1
# [10] = molecular target: Glc(b1-6)Glc
# Summary of the method: as §1
# [11] = molecular target: GlcA(b1-3)Gal
# Summary of the method: as §1
# [12] = molecular target: GlcA(b1-3)GlcNAc
# Summary of the method: as §1
# [13] = molecular target: GlcA(b1-6)Gal
# Summary of the method: as §1
# [14] = molecular target: GlcA3S(b1-3)Gal(b1-4)GlcNAc(b1-2)Man
# Summary of the method: as §1
# [15] = molecular target: GlcA3S(b1-3)Gal(b1-4)GlcNAc(b1-3)Gal(b1-4)Glc
# Summary of the method: as §1
# [16] = molecular target: GlcNAc(a1-3)Gal(b1-4)GlcNAc
# Summary of the method: as §1
# [17] = molecular target: GlcNAc(a1-4)Gal(b1-3)GlcNAc
# Summary of the method: as §1
# [18] = molecular target: GlcNAc(a1-4)Gal(b1-4)GalNAc
# Summary of the method: as §1
# [19] = molecular target: GlcNAc(a1-4)Gal(b1-4)GlcNAc
# Summary of the method: as §1
# [20] = molecular target: GlcNAc(a1-4)Gal(b1-4)GlcNAc(b1-3)Gal(b1-4)Glc
# Summary of the method: as §1
# [21] = molecular target: GlcNAc(a1-4)Gal(b1-4)GlcNAc(b1-3)Gal(b1-4)GlcNAc
# Summary of the method: as §1
# [22] = molecular target: GlcNAc(a1-4)Gal(b1-4)GlcNAc(b1-3)Gal(b1-4)GlcNAc(b1-3)Gal(b1-4)GlcNAc
# Summary of the method: as §1
# [23] = molecular target: GlcNAc(a1-4)Gal(b1-4)GlcNAc(b1-3)Gal(b1-4)[Fuc(a1-3)]GlcNAc(b1-3)Gal(b1-4)[Fuc(a1-3)]GlcNAc
# Summary of the method: as §1
# [24] = molecular target: GlcNAc(a1-6)Gal(b1-4)GlcNAc
# Summary of the method: as §1
# [25] = molecular target: GlcNAc(b1-2)Gal(b1-3)GalNAc
# Summary of the method: as §1
# [26] = molecular target: GlcNAc(b1-2)Man(a1-3)[GlcNAc(b1-2)Man(a1-6)]Man(b1-4)GlcNAc(b1-4)GlcNAc
# Summary of the method: as §1
# [27] = molecular target: GlcNAc(b1-2)Man(a1-3)[GlcNAc(b1-2)Man(a1-6)]Man(b1-4)GlcNAc(b1-4)[Fuc(a1-6)]GlcNAc
# Summary of the method: as §1
# [28] = molecular target: GlcNAc(b1-2)Man(a1-3)[GlcNAc(b1-4)][GlcNAc(b1-2)Man(a1-6)]Man(b1-4)GlcNAc(b1-4)GlcNAc
# Summary of the method: as §1
# [29] = molecular target: GlcNAc(b1-2)Man(a1-3)[GlcNAc(b1-4)][GlcNAc(b1-2)Man(a1-6)]Man(b1-4)GlcNAc(b1-4)[Fuc(a1-6)]GlcNAc
# Summary of the method: as §1
# [30] = molecular target: GlcNAc(b1-2)[GlcNAc(b1-4)]Man(a1-3)[GlcNAc(b1-2)Man(a1-6)]Man(b1-4)GlcNAc(b1-4)GlcNAc
# Summary of the method: as §1
# [31] = molecular target: GlcNAc(b1-2)[GlcNAc(b1-4)]Man(a1-3)[GlcNAc(b1-4)][GlcNAc(b1-2)Man(a1-6)]Man(b1-4)GlcNAc(b1-4)GlcNAc
# Summary of the method: as §1
# [32] = molecular target: GlcNAc(b1-2)[GlcNAc(b1-4)]Man(a1-3)[GlcNAc(b1-4)][GlcNAc(b1-2)[GlcNAc(b1-6)]Man(a1-6)]Man(b1-4)GlcNAc(b1-4)GlcNAc
# Summary of the method: as §1
# [33] = molecular target: GlcNAc(b1-2)[GlcNAc(b1-4)]Man(a1-3)[GlcNAc(b1-4)][GlcNAc(b1-2)[GlcNAc(b1-6)]Man(a1-6)]Man(b1-4)GlcNAc(b1-4)[Fuc(a1-6)]GlcNAc
# Summary of the method: as §1
# [34] = molecular target: GlcNAc(b1-2)[GlcNAc(b1-6)]Man(a1-6)[GlcNAc(b1-2)Man(a1-3)]Man(b1-4)GlcNAc(b1-4)GlcNAc
# Summary of the method: as §1
# [35] = molecular target: GlcNAc(b1-2)[GlcNAc(b1-6)]Man(a1-6)[GlcNAc(b1-2)Man(a1-3)]Man(b1-4)GlcNAc(b1-4)[Fuc(a1-6)]GlcNAc
# Summary of the method: as §1
# [36] = molecular target: GlcNAc(b1-2)[GlcNAc(b1-6)]Man(a1-6)[GlcNAc(b1-4)][GlcNAc(b1-2)Man(a1-3)]Man(b1-4)GlcNAc(b1-4)GlcNAc
# Summary of the method: as §1
# [37] = molecular target: GlcNAc(b1-3)Fuc
# Summary of the method: as §1
# [38] = molecular target: GlcNAc(b1-3)Gal
# Summary of the method: as §1
binder,measurement,setting,value
B1,glycan array binding signal (z-score),[1],0.044
same,glycan array binding signal (z-score),[2],0.067
same,glycan array binding signal (z-score),[3],-0.415
same,glycan array binding signal (z-score),[4],-0.287
same,glycan array binding signal (z-score),[5],-0.404
same,glycan array binding signal (z-score),[6],-0.204
same,glycan array binding signal (z-score),[7],-0.371
same,glycan array binding signal (z-score),[8],-0.043
same,glycan array binding signal (z-score),[9],-0.238
same,glycan array binding signal (z-score),[10],0.346
same,glycan array binding signal (z-score),[11],-0.203
same,glycan array binding signal (z-score),[12],0.484
same,glycan array binding signal (z-score),[13],-0.415
same,glycan array binding signal (z-score),[14],-0.535
same,glycan array binding signal (z-score),[15],-0.315
same,glycan array binding signal (z-score),[16],-0.477
same,glycan array binding signal (z-score),[17],-0.07
same,glycan array binding signal (z-score),[18],0.074
same,glycan array binding signal (z-score),[19],-0.479
same,glycan array binding signal (z-score),[20],-0.521
same,glycan array binding signal (z-score),[21],-0.384
same,glycan array binding signal (z-score),[22],-0.238
same,glycan array binding signal (z-score),[23],2.28
same,glycan array binding signal (z-score),[24],-0.03
same,glycan array binding signal (z-score),[25],-0.103
same,glycan array binding signal (z-score),[26],-0.388
same,glycan array binding signal (z-score),[27],-0.153
same,glycan array binding signal (z-score),[28],-0.449
same,glycan array binding signal (z-score),[29],-0.382
same,glycan array binding signal (z-score),[30],0.408
same,glycan array binding signal (z-score),[31],-0.169
same,glycan array binding signal (z-score),[32],-0.587
same,glycan array binding signal (z-score),[33],-0.262
same,glycan array binding signal (z-score),[34],-0.043
same,glycan array binding signal (z-score),[35],-0.388
same,glycan array binding signal (z-score),[36],-0.424
same,glycan array binding signal (z-score),[37],0.529
same,glycan array binding signal (z-score),[38],-0.573
